# The full ranking holds about 33,000 sequences; the median of “E-score (-0.5 to 0.5)” is about -0.054, and the highest 2% start at about 0.35. The list shows a part of the results.
# Biological target: T1, Stb5 (UniProt P38699)
# T1 sequence: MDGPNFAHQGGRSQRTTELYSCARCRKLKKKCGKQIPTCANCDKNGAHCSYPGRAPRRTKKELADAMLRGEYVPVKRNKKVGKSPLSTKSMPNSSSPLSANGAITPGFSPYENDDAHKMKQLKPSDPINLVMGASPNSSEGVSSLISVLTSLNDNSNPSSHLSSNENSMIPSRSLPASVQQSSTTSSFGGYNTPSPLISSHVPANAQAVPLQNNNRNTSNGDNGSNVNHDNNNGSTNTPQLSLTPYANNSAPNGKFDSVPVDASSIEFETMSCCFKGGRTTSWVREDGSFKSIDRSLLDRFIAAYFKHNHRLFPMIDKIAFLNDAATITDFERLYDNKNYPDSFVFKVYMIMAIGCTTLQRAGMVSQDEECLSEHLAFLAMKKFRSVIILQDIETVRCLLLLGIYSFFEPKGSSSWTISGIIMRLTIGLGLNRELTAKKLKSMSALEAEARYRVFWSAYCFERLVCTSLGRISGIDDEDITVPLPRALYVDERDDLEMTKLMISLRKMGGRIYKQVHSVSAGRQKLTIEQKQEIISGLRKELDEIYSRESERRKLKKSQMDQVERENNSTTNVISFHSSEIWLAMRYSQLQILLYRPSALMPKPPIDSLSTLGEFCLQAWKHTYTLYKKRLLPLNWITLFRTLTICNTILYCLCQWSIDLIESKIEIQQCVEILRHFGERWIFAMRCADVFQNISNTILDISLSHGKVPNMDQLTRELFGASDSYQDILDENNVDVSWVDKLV
# Assay: PBM E-score (8-mer binding enrichment) (E-score (-0.5 to 0.5)); higher = stronger / more preferred TF binding; most listed sequences are background and not binding sites
# Conditions: protein concentration: 200 nM; construct: GST-full length
# Outline: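 Bound GST-tagged yeast transcription factors, applied at about 100-200 nM to double-stranded universal all-10-mer Agilent arrays, were detected with fluorescent anti-GST. Scans were normalised with masliner. A modified Wilcoxon-Mann-Whitney statistic, the E-score, was assigned to each ungapped eight-base word pooled with its reverse complement by the Universal PBM Analysis Suite.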
row,Sequence,PBM E-score
1,CCTGGCGC,0.0831
2,CCGAGAAG,0.0415
3,CCGACAAA,0.353
4,CGCTTCGC,0.161
5,AAGTTCAC,-0.0104
6,CAACTCCC,0.0133
7,CGGTGAGC,0.00906
8,ATAGTGTC,0.0257
9,CCGCTCGA,0.328
10,AACCGAAC,-0.0424
11,CGCAAGTA,0.117
12,CCTGTCTA,-0.145
13,GCACTTCA,-0.0218
14,CATCACCG,0.251
15,CGGATCTC,0.103
16,CATATAAA,0.0235
17,TCTGAAAA,-0.118
18,ATGCAAAA,-0.0662
19,GAGCCACC,0.0335
20,CCTCGAAC,-0.29
21,CTCTCGGA,0.0492
22,CATTATGC,0.0831
23,AGTGAAAC,-0.22
24,GGGACACA,-0.00402
25,CCCATATA,0.0651

row,Sequence,PBM E-score
1,CCCATCCG,0.129
2,CATATGAC,0.0378
3,ATATTCTC,-0.0456
4,GAGTTACA,-0.0771
5,ATTTCTTG,-0.0868
6,AAGTCCAT,0.0307
7,GACGCAAC,0.132
8,ATCCATCC,0.109
9,ACAAGGTC,-0.179
10,CATCATGC,-0.0753
11,AAGCGGAA,0.167
12,GTAAGCCA,-0.243
13,ACTGACGA,-0.181
14,AGATACTC,0.0381
15,AGTCTCCG,0.264
16,GAAAAATA,-0.088
17,AAGGACAT,0.0967
18,GCTGCCAC,0.0409
19,GAGTACTC,-0.176
20,GCAGTGTA,-0.117
21,TGGTGGAA,-0.255
22,AACACTCA,-0.109
23,AGGAGCCA,-0.379
24,ACAGGCCG,0.212
25,ATCCTTTG,-0.0992

row,Sequence,PBM E-score
1,CCGCCGCG,0.363
2,ACCTTTTA,-0.103
3,GTATGCAC,-0.0253
4,CACTTTTC,-0.0609
5,GATCGGCC,0.298
6,CCTGGATA,-0.121
7,ATGCCCGG,0.318
8,AAAATCCT,0.0168
9,ACCAGCTC,-0.0609
10,CGTCAACG,0.108
11,ACATCGCG,-0.00388
12,TAAGTTAA,-0.0413
13,TCGGTAAA,0.2
14,CCTGCCGC,0.112
15,GATTGTGC,-0.0187
16,CTAATTTA,-0.0327
17,CCTAGACG,-0.0639
18,CACTGCAG,-0.231
19,AGATTCGC,-0.00054
20,ATACCACG,-0.174
21,ATGGCGTG,-0.256
22,CGTGTACA,-0.00441
23,CACTTTAA,-0.0573
24,GTAAAAGA,-0.226
25,ACCAAAGT,-0.209

row,Sequence,PBM E-score
1,TTCCTCAA,-0.217
2,ACAGCTGG,-0.121
3,CGAAGCAG,-0.0001
4,AACCAGTG,-0.182
5,GAAAGCGC,0.0901
6,GAACCTTC,-0.201
7,CCCTCTTA,-0.167
8,CAACGTAC,-0.237
9,AAGGCTTG,-0.305
10,CCAGCGGA,0.282
11,ACTAAATA,0.0203
12,CGATAGCG,0.214
13,ACGCATGC,-0.15
14,CAAGCATA,-0.205
15,AGGGGTAT,-0.0217
16,CTATAATA,0.178
17,GTCGCGGA,0.227
18,AACATAGC,0.0221
19,GCATAGGC,-0.108
20,CACATCCA,-0.132
21,ACGCCGTA,0.204
22,CCAAATAC,-0.0142
23,ACAACACT,-0.233
24,CTCGGAAA,-0.101
25,CTTGCAGA,-0.112

row,Sequence,PBM E-score
1,GGATGTTA,0.229
2,GCCCCCCC,-0.161
3,AATTAGCT,-0.0705
4,AGCGCGAA,-0.0315
5,CTGCGGAA,0.0552
6,GATATTCA,-0.0862
7,AGGGTTCG,-0.163
8,TCCTTGAA,-0.238
9,ACGGATAT,0.367
10,CCAGGTCC,0.0542
11,TATTGACA,-0.0413
12,ACAGCCCT,-0.157
13,GTTATCTA,-0.00767
14,CGACATCG,0.227
15,CTCTCACC,0.0107
16,AACACCGT,0.472
17,GACCAGCA,-0.115
18,CCCGCCGA,0.345
19,ACATTAAG,-0.0786
20,ACCGGTTA,0.276
21,GGAGGCTA,0.0536
22,CCCAAGGC,0.0152
23,GTTGGGTA,-0.192
24,ATAATCGC,0.136
25,CCAAAAAG,-0.00807

row,Sequence,PBM E-score
1,GTGTTATA,0.203
2,ACCACGGG,0.0924
3,AATTTTAC,0.037
4,CCTTAAAG,-0.122
5,CCGTGGCG,0.311
6,CATGGCGG,0.262
7,ATACAGAA,-0.0271
8,CATTTAGG,-0.0674
9,AGCTGGTG,-0.223
10,GCTTCGGA,0.0899
11,CGCGGCTC,0.0954
12,CCGTTCGA,0.163
13,CTGCAGAA,-0.0848
14,GATTATGA,0.0629
15,CAAGTTCA,-0.0622
16,CAGATGCA,-0.352
17,AACCACGA,-0.0647
18,CATAACCC,0.13
19,AGAAACAA,-0.0376
20,CTTGCAAA,0.00157
21,GAATTGTA,-0.0944
22,ATCTTCTA,-0.0591
23,AAGGGTCA,-0.283
24,ACGGAAGC,0.0867
25,CACCCTGC,-0.0155

row,Sequence,PBM E-score
1,GCATTCCC,0.0283
2,TACCTCAA,-0.169
3,CGCCAGCG,0.115
4,AAGGTTTA,-0.182
5,TTGTGAAA,-0.223
6,ACATGATC,-0.0463
7,GAATTGCC,0.143
8,ATATTCCC,0.372
9,GCAAAGGA,-0.107
10,ACATACCC,-0.0726
11,ATCAACTA,-0.159
12,CAAGAGGA,-0.316
13,AAAGCAGA,-0.316
14,GACCAACC,0.0267
15,ATGTCCGA,0.412
16,AGTGGACC,-0.206
17,AATGGGGC,-0.213
18,CTGTAACC,0.0375
19,CAGGGATG,-0.11
20,CGATTTAA,0.0153
21,CATTAAAC,-0.17
22,GCTCTCCC,-0.155

# — the supplement of paper PMC3334620
